The source of these data is publication PMC9574860, “Chemical Toolkit for PARK7: Potent, Selective, and High-Throughput” (Journal of Medicinal Chemistry, 2022).

Out of some 7,900 compounds screened, about 400 (5.1%) showed an effect of 50% or more. The list shows a part of the results.

Parkinson's disease protein 7 (PARK7/DJ1), sequence (Q99497 whole entry, looked up, the tested form may be a part): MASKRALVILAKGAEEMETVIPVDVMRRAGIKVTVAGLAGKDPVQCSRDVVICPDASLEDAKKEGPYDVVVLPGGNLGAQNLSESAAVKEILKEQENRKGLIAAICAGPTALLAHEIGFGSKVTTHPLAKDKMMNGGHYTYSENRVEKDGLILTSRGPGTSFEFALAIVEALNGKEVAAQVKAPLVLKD

For the experiment, the target named is Parkinson's disease protein 7 (PARK7/DJ1) (human, UniProt Q99497). As to the kind of experiment: primary screen, percent inhibition; read as competition with a fluorescent probe by fluorescence polarization; higher = more effect of the substance. The following applies: 100 µM. In a few lines:
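Fluorescence-polarization probe displacement (JYQ-107, 20 nM final, 2 h) after 2 h preincubation of PARK7 (0.2 μM final) with each fragment at 100 μM final. Read-out ex/em 480/520 nm; remaining activity derived from FP signal loss relative to reference controls.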
`C=CC(=O)NC1CCN(C(=O)CC)C1` (stereo not shown): the Inhibition % is 4.56%.

As for `CC(C)c1cccc(C#N)n1`, the Inhibition % came to 2.61%.

As for `Cc1ccc(S(=O)(=O)F)c2c1NCCC2`, the Inhibition % was 4.21%.

As to `Nc1ccccc1S(=O)(=O)F`, the Inhibition % was determined as 44.7%.

On to `C=CC(=O)N1CCC(C)(C)S(=O)(=O)CC1`, for which the Inhibition % was 9.68%.

In the case of `O=C(CCl)NC1CCCC(C(F)(F)F)C1` (stereo not shown), the Inhibition % was 5.79%.

On to `O=C(CCl)Nc1cccc2cccc(C(=O)O)c12`, for which the Inhibition % is on record as 11.2%.

Consider `CC1(F)CCN(c2ccc(C#N)nc2)C1` (stereo not shown), for which the Inhibition % turned out to be 11.9%.

For the molecule `Cc1cnn(-c2cccc(B3OC(C)(C)C(C)(C)O3)c2)c1`, the Inhibition % was 1.38%.

Consider `Cl.O=C(CCl)Nc1nc(CN2CCCC2)cs1`, for which the Inhibition % is 5.7%.

Turning to `OB(O)c1cccc(C2CCC2)c1`, the Inhibition % was -1.61%.

With `COCc1cccc(CNC(=O)CCl)c1`, the Inhibition % is recorded as 4.03%.

`C=CC(=O)N1CCCC(c2nn(C)cc2C(=O)O)C1` (stereo not shown): the Inhibition % came out at 0.724%.

As to `CC(C)(C)CC1CCCN1C(=O)CCN1C(=O)CCC1=O` (stereo not shown), the Inhibition % stood at 1.67%.

`O=S(=O)(Oc1ccccc1C(F)(F)F)c1c[nH]cn1`: the Inhibition % is listed as 10.4%.

For `C=CC(=O)NC1CCCSC1` (stereo not shown), the Inhibition % was 2.15%.

Regarding `CC1(C)OB(c2cccc(OCCN3CCCC3)c2)OC1(C)C.Cl`, the Inhibition % stood at 6.33%.

Take `CC1CCc2nc(NC(=O)CN3CCSC3=O)sc2C1` (stereo not shown): the Inhibition % is reported as 9%.

`CC(N)C1CCCN(C(=O)C=Cc2ccc(Cl)s2)C1.Cl` (stereo not shown): the Inhibition % is listed as 8.86%.

With `CC(=O)Nc1ccc(S(=O)(=O)F)cc1`, the Inhibition % is reported as 15.8%.

With `C=CC(=O)NC1COc2cccc(Cl)c21` (stereo not shown), the Inhibition % turned out to be 9.93%.

For `O=C1OCCC1N1CCN(C(=O)c2ccc(F)cc2)CC1` (stereo not shown), the Inhibition % is 7.62%.

As for `N#Cc1ncccc1N1CCCC(F)C1` (stereo not shown), the Inhibition % is 6.34%.

On to `O=C(CCCl)Nc1cccc(Cl)c1`, for which the Inhibition % is listed as -0.704%.

Regarding `N#Cc1ncn(CC(=O)N2CCc3ccccc3C2)n1`, the Inhibition % is 1.35%.

Turning to `C=CC(=O)Nc1ccc2c(c1)CCCO2`, the Inhibition % amounted to 7.61%.

As to `N#Cc1ccc(N2CCC3CCCCC32)cn1` (stereo not shown), the Inhibition % came to 1.54%.

For the molecule `Cc1cc(C(=O)N2CCC(B(O)O)C2)ccn1` (stereo not shown), the Inhibition % is 24.9%.

Take `COc1ccc(CN2CCN(C(=O)CCl)CC2)cc1.Cl`: the Inhibition % is reported as 10.6%.

Turning to `Cc1nn(C)c(Cl)c1C=CC(=O)N1CCOC(C)C1` (stereo not shown), the Inhibition % was 8.05%.

Turning to `ClCCNc1nc2ccccc2[nH]1`, the Inhibition % is on record as 5.2%.

In the case of `Oc1cc(C(F)(F)F)nc(S)n1`, the Inhibition % is listed as 6.07%.

Consider `COc1ccc(OCC2CO2)cc1` (stereo not shown), for which the Inhibition % is on record as 27%.

`C=CC(=O)NCC(=O)Nc1ccc2c[nH]nc2c1`: the Inhibition % worked out at 7.37%.

For `C=CC(=O)N[C@H](C(=O)O)c1ccccc1`, the Inhibition % is listed as 3.77%.

With `Cc1nn(C)c(C)c1C=CC(=O)N1CCCCCC1`, the Inhibition % is 4.15%.

With `C=CC(=O)N1CC(Cc2cnn(C)c2)C1`, the Inhibition % is recorded as 4.01%.

Regarding `C=CC(=O)N1CCC(C2CCOC2)C1` (stereo not shown), the Inhibition % is reported as 13.9%.

With `C=CC(=O)N1CCN(c2ccccc2OCC)CC1`, the Inhibition % is given as 4.99%.

Regarding `N#CC(=Cc1csc(-c2ccsc2)n1)C(=O)O`, the Inhibition % was 2.32%.

Regarding `CC(C)(C)c1ccc(C(=O)NNC(=O)CCl)cc1`, the Inhibition % is 11%.

Regarding `Cc1ccc(S(=O)(=O)n2nc(C)cc2C)cc1`, the Inhibition % turned out to be 2.3%.

As to `COCCc1nc(S(=O)(=O)F)n[nH]1`, the Inhibition % came out at 44.6%.

Turning to `CCOC(=O)C1CC1B1OC(C)(C)C(C)(C)O1` (stereo not shown), the Inhibition % is -0.114%.

`CCN(C(=O)CCl)c1ccc(F)cc1`: the Inhibition % is reported as 31.3%.

`C=CC(=O)N1CCC(n2ccc(C)n2)CC1`: the Inhibition % is listed as -1.67%.

Consider `C=CC(=O)Nc1nnc(C)c2ccccc12`, for which the Inhibition % is recorded as 14.7%.

In the case of `CC1(C)OB(c2ccc(F)cc2)OC1(C)C`, the Inhibition % amounted to 3.99%.

For the molecule `C=CC(=O)NCCN(C)C1CCCC1`, the Inhibition % is reported as 8.04%.

As to `C=CC(=O)Nc1cccc(F)c1C`, the Inhibition % is 7.6%.

Regarding `NS(=O)(=O)c1cccc(NC(=O)Oc2ccccc2)c1`, the Inhibition % amounted to 4.87%.

As to `C=CC(=O)N1CCCN(c2nnc(C(F)(F)F)s2)CC1`, the Inhibition % was found to be 3.88%.

Regarding `Cc1ccc(NC(=O)CCl)cc1[N+](=O)[O-]`, the Inhibition % was determined as 37.9%.

As to `Cn1cc(C(=O)CCl)nn1`, the Inhibition % is listed as 3.33%.

Consider `O=C(CCl)Nc1nnc(CC(F)(F)F)o1`, for which the Inhibition % is on record as 4.09%.

Regarding `Cc1cc(C)c2c(O)nc(S)nc2n1`, the Inhibition % was 8.38%.

As for `COc1cc(F)ccc1N1CCN(C2CCOC2=O)CC1` (stereo not shown), the Inhibition % is given as 7.6%.

With `C=CC(=O)N1CCC(C)S(=O)(=O)CC1` (stereo not shown), the Inhibition % is listed as 7.1%.

Regarding `O=C(C1CCOCC1)N1CCCC(S(=O)(=O)F)C1` (stereo not shown), the Inhibition % is recorded as 8.98%.

In the case of `C=CC(=O)NC1COCC1CC` (stereo not shown), the Inhibition % is 6.4%.

With `O=S1(=O)C=CC(O)C1` (stereo not shown), the Inhibition % came to 4.75%.

As to `COc1ccc(C=CC(=O)N2CCCC(O)C2)cc1F` (stereo not shown), the Inhibition % was 9.41%.

`Cc1nn(-c2nccs2)cc1B1OC(C)(C)C(C)(C)O1`: the Inhibition % came out at 4.59%.

As for `N#Cc1cccc(F)n1`, the Inhibition % amounted to 4.58%.
